# Assay results reported in PubChem BioAssay AID686979 (National Center for Advancing Translational Sciences (NCATS), 2013).
# In all, about 420,000 compounds went through this assay and about 50,000 (12%) were called active. The inconclusive results got no clear call from the source; some entries with a clear call stand among them for comparison. The call rests on the fitted dose curve; in most records, active means well fitted inhibition curve with a large enough effect; inconclusive means small, poorly fitted or top-dose-only effect; inactive means flat fitted curve, though single readings scatter. No potency is given beside an inconclusive call; the fits are too rough.
# Experiment: qHTS for Inhibitors of human tyrosyl-DNA phosphodiesterase 1 (TDP1): qHTS in cells in presence of CPT; further: nearly all actives have a fitted effect of over 55% in size
# Conditions: chicken DT40 Tdp1-/-;hTDP1 cells + 20 nM CPT, ATP luminescence, 48 h; activity change, negative = growth inhibition: at 46.2 µM (top of the series) unless noted
# Method in brief: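 Chicken DT40 Tdp1-/- cells stably complemented with human TDP1 were seeded at 400 cells/well in medium containing 20 nM camptothecin, exposed to pin-transferred compounds, and grown at 37 °C for at least 48 hr. Viability was read as ATP luminescence.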
# On the % scale 0 is the no-effect control and ±100 the full control effect; potency means the concentration at half of the fitted maximal effect; tags describe the fitted curve by direction and shape.
SMILES,"activity change, negative = growth inhibition",Potency
CCc1cc(-c2onc(C)c2-c2cscn2)c(O)cc1OC,inconclusive: -30.1% [inhibitor],–
Nc1ccc2oc(C3CCCCC3)nc2c1,–,inactive
Cc1ccc(N(CC(=O)NCc2ccc3c(c2)OCO3)C(=O)CCC(=O)Nc2ccccn2)cc1,–,inactive
COCc1cc(C)nc(SCC(=O)NC2CCCCC2C)c1C#N (stereo not given),–,inactive
CCn1c(=O)cc(OCC(=O)Nc2cc(OC)c(OC)c(OC)c2)c2ccccc21,–,active: 14.6 µM
COc1cc(/C=C2/C(=N)N3C(=NC2=O)SN=C3S(C)(=O)=O)ccc1OS(=O)(=O)c1ccc(C)cc1,–,"inconclusive [inhibitor, single point]"
Cc1cc(C[n+]2ccsc2N)c2ncccc2c1,–,"inconclusive [inhibitor, single point]"
Cc1cccc(NC(=O)C2c3ccccc3C(=O)N3CCc4ccccc4C23)n1 (stereo not given),inconclusive: -30.6% [inhibitor],–
CCOC(=O)c1c(-c2ccc(OC)cc2)csc1NC(=O)C1CCCO1 (stereo not given),–,"inconclusive [inhibitor, single point]"
O=C1C2C3c4ccccc4C(c4ccccc43)[C@@H]2C(=O)N1c1cccnc1 (stereo not given in full),–,"inconclusive [inhibitor, partial curve]"
NC(=O)c1[nH]cnc1N=NN(CCO)Cc1ccccc1,–,inactive
O=C(NC1CCCCC1)c1cccc(OCc2ccccc2)c1,–,"inconclusive [inhibitor, single point]"
Nc1nc2ncccc2cc1C(=O)NC1CCCCC1,–,inactive
CN1CCN(/C=N/c2sc3c(c2C#N)CCCCC3)CC1,–,"inconclusive [inhibitor, single point]"
CC(=O)N(C)c1ccc(/C=C2\C=Cc3ccccc32)cc1,–,active: 6.31 µM
COCC(C)n1c(SCc2cc(=O)n3cc(C)ccc3n2)nc2ccccc2c1=O (stereo not given),–,"inconclusive [inhibitor, partial curve]"
Cc1ccccc1N1CCN(CCCN2C(=O)CC(=C(c3ccccc3)c3ccccc3)C2=O)CC1,–,"inconclusive [inhibitor, single point]"
CCN(C(=O)CSc1nc2ccccc2[nH]1)C1CCS(=O)(=O)C1 (stereo not given),–,inactive
CN(c1ccccc1)S(=O)(=O)c1ccc(C(=O)N2CCCC(C(F)(F)F)C2)cc1 (stereo not given),–,"inconclusive [inhibitor, single point]"
CCc1ccc(S(=O)(=O)c2c(C(=O)c3ccc(C)c(C)c3)cnc3ccccc23)cc1,–,"inconclusive [inhibitor, single point]"
COCCCNc1ccn2nc(-c3ccc(CC(C)C)cc3)cc2n1,–,"inconclusive [inhibitor, single point]"
CC1(C)Cc2c(sc(NC(=O)C(=O)N3CCCCC3)c2C(=O)O)CO1,–,inactive
Nn1cnc2sc3c(c2c1=O)CCC3,–,inactive
COc1ccc(C2(C)NC(=O)NC2=O)cc1OC (stereo not given),–,inactive
O=C(O)c1ccccc1C(=O)Nn1cnnc1,–,inactive

SMILES,"activity change, negative = growth inhibition",Potency
O=C(Nc1ccccc1)N1CC=C(c2ccc(F)cc2)CC1,–,"inconclusive [inhibitor, single point]"
COc1ccc(Nc2c(C3CC3)nc3nc(C)cc(C)n23)cc1,–,"inconclusive [inhibitor, single point]"
CN1CCN(C(=O)c2cc(=O)c3cc(Cl)ccc3o2)CC1,–,inactive
CN(C)c1ccc(CNC(=O)c2ccc(NC(=O)c3nsc4ccccc34)cc2)cc1,–,inactive
O=C(O)CCCCCN1C(=O)C(O)=C(C(=O)/C=C/c2ccccc2)C1c1cccc([N+](=O)[O-])c1 (stereo not given),–,inactive
COc1cc2c(cc1OC)C(C)N(C(C)=O)CC2 (stereo not given),–,inactive
CCC(c1nnnn1C(C)(C)CC)N(CCN1CCOCC1)Cc1cc2cc(C)ccc2[nH]c1=O (stereo not given),–,"inconclusive [inhibitor, single point]"
CSc1oc(-c2ccc(F)cc2)nc1S(=O)(=O)c1ccc(F)cc1,–,active: 14.6 µM
CN(Cc1ccc(F)cc1)C(=O)CN1CCN(S(=O)(=O)c2ccc3c(c2)OCCCO3)CC1,–,inactive
O=C(Nc1sc2c(c1C(=O)NC1CCCCC1)CCC2)c1ccco1,–,inactive
CC(=O)c1c(C)[nH]c(C(=O)COc2ccc3c(C)cc(=O)oc3c2)c1C,–,active: 16.4 µM
COc1ccc(NC(=O)NC2(C(=O)N3CCOCC3)CCCCC2)cc1,–,inactive
Cc1ccccc1NC(=S)N(CCN1CCCCCC1)Cc1cccs1,–,"inconclusive [inhibitor, single point]"
O=C(Cn1c(=O)n(-c2ccccc2)c(=O)c2c3c(sc21)CCCC3)Nc1cccc(F)c1,–,"inconclusive [inhibitor, partial curve, poor fit]"
S=C(NC1CC1)N1CCN(C(=S)NC2CC2)CC1,–,inactive
COCCn1c(SC2CCCCC2=O)nnc1-c1ccncc1 (stereo not given),–,inactive
COc1ccc(-c2cc(-c3nnc(COC(=O)c4ccncc4)o3)c3ccccc3n2)cc1OC,–,inactive
CCOc1cccc(-c2nn3c(-c4ccccn4)nnc3s2)c1,–,inactive
Cc1cccc(CNC(=O)c2ccc3nc(-c4ccccc4)c(-c4ccccc4)nc3c2)c1,–,active: 20.6 µM
CC(C)Oc1ccc(CCc2nnc(SCC(=O)O)n2-c2ccccc2)cc1,–,"inconclusive [inhibitor, full curve]"
O=C(Nc1ccccn1)C1CCCN(c2ncnc3c2nc2n3CCCCC2)C1 (stereo not given),–,"inconclusive [inhibitor, single point]"
COc1ccccc1OC(=O)CCN1c2ccccc2Sc2ccccc21,–,inactive
Cc1ccc(NC(=O)C2(c3ccccc3)CCCC2)nc1,–,"inconclusive [inhibitor, single point]"
CCOC(=O)Cn1c(-c2ccccc2)nc2ccccc2c1=O,–,inactive
CN1CCN(C(=O)c2sc(=S)n(-c3ccccc3)c2N)CC1,–,"inconclusive [inhibitor, single point]"

SMILES,"activity change, negative = growth inhibition",Potency
CC(C)c1cc(C(=O)N2CCCC(C(=O)c3ccc4ccccc4c3)C2)on1 (stereo not given),–,"inconclusive [inhibitor, single point]"
O=[N+]([O-])c1ccc2c(c1)C(N1CCOCC1)/C(=C/COc1ccc3ccccc3c1Br)O2 (stereo not given),–,"inconclusive [inhibitor, single point]"
Cc1cccc(NC(=O)Cn2c(=O)n(CCc3ccccc3)c(=O)c3sc4ccccc4c32)c1,–,active: 16.4 µM
CCN(CC)Cc1cc(NC2=NS(=O)(=O)c3ccccc32)ccc1OC(=O)C(C)C,–,"inconclusive [inhibitor, single point]"
CC(C)C1N=C2c3ccccc3N=C(SCC(=O)NCc3ccc(F)cc3)N2C1=O (stereo not given),–,"inconclusive [inhibitor, single point]"
O=C(c1ccc([N+](=O)[O-])cc1)N1CCN(Cc2ccccc2[N+](=O)[O-])CC1,–,"inconclusive [inhibitor, single point]"
C=C1CCN([C@@H](CC(C)C)C(=O)N2CCCC2)S(=O)(=O)c2ccccc21,–,"inconclusive [inhibitor, single point]"
COc1ccc(Cl)cc1C=CC=NNC(=O)c1ccncc1,–,inactive
CC1(C)C2CCC1(C)C(OC(=O)CNc1ccccc1)C2 (stereo not given),–,"inconclusive [inhibitor, single point]"
CC(C)c1cc(Cn2c3ccccc3c(=O)n2C(C)Cn2cc(C3CC3)nn2)on1 (stereo not given),–,inactive
O=C(CSc1nc2c([nH]c3ccccc32)c(=O)n1-c1ccc(F)cc1)N1CCCc2ccccc21,–,"inconclusive [inhibitor, partial curve]"
CCCCCN1CC(=O)N2Cc3[nH]c4ccccc4c3C[C@H]2C1=O,–,inactive
CN(C)c1ccc(/C=N\Nc2ccc([N+](=O)[O-])cc2[N+](=O)[O-])cc1Cl,–,"inconclusive [inhibitor, partial curve, poor fit]"
O=C(CCn1cnc(-c2ccccc2)c1-c1ccccc1)N/N=C/c1ccc(O)cc1,–,"inconclusive [inhibitor, single point]"
Cc1ccc2nc(N3CCN(C(=O)c4ccc(F)cc4)CC3)c(C#N)cc2c1,–,"inconclusive [inhibitor, single point]"
COc1ccc(-c2[nH]ncc2[C@@H]2C[C@H]3CN(Cc4ccccc4C)C(=O)[C@]34CCCN24)cc1,–,"inconclusive [inhibitor, single point]"
CC(C)(C)C1CCC2(CC1)C(C#N)=C(SCC(=O)NC1CCCCC1)NC(=O)C2C#N (stereo not given),–,active: 20.6 µM
Cc1cccc(C)c1OCc1nc2c3cnn(-c4ccccc4Br)c3ncn2n1,–,active: 10.3 µM
COc1cc(NC(=O)c2cc(C3CC3)nc3c2c(C)nn3-c2ccc(C)cc2)cc(OC)c1,–,"inconclusive [inhibitor, partial curve, poor fit]"
Cn1nc(-c2ccc(Cl)cc2)c2cc(C(=O)N3CCN(C(=O)c4ccco4)CC3)sc21,–,"inconclusive [inhibitor, single point]"
O=C(O)c1cccc(Nc2c3ccccc3nc3ccccc23)c1,–,"inconclusive [inhibitor, single point]"
O=S(=O)(c1ccc(Br)c2nsnc12)N1CCOCC1,–,inactive
COC(=O)c1ccc(NC(=O)CCNS(=O)(=O)c2cccc3nsnc23)cc1,–,inactive
CCC(C)NC(=S)Nc1ccc(C(=O)OC)cc1 (stereo not given),–,inactive
N#CC1CCCc2c1[nH]c1ccc([N+](=O)[O-])cc21 (stereo not given),inconclusive: -41.8% [inhibitor],–
